Laboratory results: publication PMC7819943, “Rice protein-binding microarrays: a tool to detect cis-acting elements near promoter regions in rice”
The list shows a part of the results.

Each sequence was assayed against T1, OsWOX13 (Oryza sativa, UniProt Q5QMM3 1-267) (assay: protein-binding microarray (RPBM); PBS, 2% BSA, 51.3 ng/ul salmon testes DNA, 50 uM zinc acetate, 200 nM TF, 25 C, 1 h; high values mean tight binding). Details: protein: recombinant; tags: N-terminal polyhistidine and DsRed monomer fusion (pET32a); label: CyDye5-dUTP incorporated in the synthesized complementary strand; 3' TTTTT single-stranded linker to array surface; dsDNA, one strand shown.
T1 sequence: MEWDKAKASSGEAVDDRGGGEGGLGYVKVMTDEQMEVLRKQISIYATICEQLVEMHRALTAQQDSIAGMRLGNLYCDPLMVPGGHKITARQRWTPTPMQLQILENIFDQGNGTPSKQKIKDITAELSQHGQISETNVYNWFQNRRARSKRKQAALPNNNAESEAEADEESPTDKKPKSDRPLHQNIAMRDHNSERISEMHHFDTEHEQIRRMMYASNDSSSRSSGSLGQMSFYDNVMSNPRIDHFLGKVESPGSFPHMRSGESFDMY
In short: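 An Axon 4000B scanner gave the binding signal as per-feature fluorescence intensity in arbitrary units. This followed washing of a custom Agilent array that had been incubated for 1 h at 25 °C with 200 nM protein in PBS, 2% BSA, salmon testes DNA and 50 µM zinc acetate. The proteins were transcription factors fused at the N-terminus to polyhistidine and DsRed, expressed in E. coli BL21-CodonPlus and purified on Ni–NTA.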

Sequence	binding signal
TTTAGGATTAATTGGATCTATGCCATTATAAATTTTATGTCGGAGTCACCTAGTGCAG	24600 fluorescence intensity (a.u.)
ACATAGATTAATATGAAATATATCACTCCACAAACATGCACGGAGTCACCTAGTGCAG	11200 fluorescence intensity (a.u.)
TCGTAGTAATCATGCGTGATCTGATGAATATTTTATGGATCGGAGTCACCTAGTGCAG	4060 fluorescence intensity (a.u.)
TTTAAATTATTTCAAAATAATGAATCACAATCTATATTTTCGGAGTCACCTAGTGCAG	5830 fluorescence intensity (a.u.)
TAAGCCTAATTAATCCATGTTTATTGTAGCATCACATAGGCGGAGTCACCTAGTGCAG	10300 fluorescence intensity (a.u.)
CAATATATTGATAGAACACAGCTGTAACTAAATGTTGCGTCGGAGTCACCTAGTGCAG	25500 fluorescence intensity (a.u.)
ATGATTTACTTAACTCATATTAGTAATCTAAATGTGTATTCGGAGTCACCTAGTGCAG	31800 fluorescence intensity (a.u.)
ATTCAGATTGGTGACACTAACTACTTTTGAAGTGGTTGCCCGGAGTCACCTAGTGCAG	22300 fluorescence intensity (a.u.)
TGGGCCTGATTAACATGTGCTGTAGAATCGTACAACTGTGCGGAGTCACCTAGTGCAG	7530 fluorescence intensity (a.u.)
GTGTAATTCTAAATAAAGTAATTACATAAAAGCAGAGTTCCGGAGTCACCTAGTGCAG	5340 fluorescence intensity (a.u.)
ATTGTAACAAACTCTTTCATAATTATGACTCTCTTGTGTGCGGAGTCACCTAGTGCAG	4850 fluorescence intensity (a.u.)
CTAACAGATTAGGATTCTGATACCACCTTAATCAGACGAACGGAGTCACCTAGTGCAG	25300 fluorescence intensity (a.u.)
GGAGGCAATCACACGACGTGTCTAGGAGTAGTATATTCCTCGGAGTCACCTAGTGCAG	3760 fluorescence intensity (a.u.)
TATGTAATTAGTTTTATAAGTAGTCTATATTTAATACTCTCGGAGTCACCTAGTGCAG	17400 fluorescence intensity (a.u.)
GATTAATTGAAAGTTTACATGGACGACGTTGACTCGGGGCCGGAGTCACCTAGTGCAG	54700 fluorescence intensity (a.u.)
ATATAAAACTCTGCTAATTAACCTGGGTTAATTACAAGGTCGGAGTCACCTAGTGCAG	13100 fluorescence intensity (a.u.)
AAATCATGACGTAATTAGGCTCAAAGGATTTGTCTCACAACGGAGTCACCTAGTGCAG	6550 fluorescence intensity (a.u.)
ATATAAATTACAAATTTTGTCAGTAAAATTTGGAGGGTCACGGAGTCACCTAGTGCAG	28100 fluorescence intensity (a.u.)
GTTGATTACTTACTCCTACTGTTTGGGTTCACATCACAAGCGGAGTCACCTAGTGCAG	30300 fluorescence intensity (a.u.)
TGGTTGATTGCTCATAGTTCAAACGAATTCATGAAGTAACCGGAGTCACCTAGTGCAG	23800 fluorescence intensity (a.u.)
ATGTTATGATGAGAAGATAGATAGAGAAATAGTATTTCAACGGAGTCACCTAGTGCAG	4610 fluorescence intensity (a.u.)

Sequence	binding signal
CAATCAATCACCAAACGTGGGTCGTCTCAGAGATCGATCACGGAGTCACCTAGTGCAG	16000 fluorescence intensity (a.u.)
TTCATCATTCAATTATACAATTTGATGGTCTTTCTTTGTTCGGAGTCACCTAGTGCAG	15700 fluorescence intensity (a.u.)
GCATGTTGATTATACCAGTAAGTTTCACGCACGCACACCGCGGAGTCACCTAGTGCAG	13000 fluorescence intensity (a.u.)
AATAAGCACATCAATCAGTTATCCTTTTGGGACTTCTTAACGGAGTCACCTAGTGCAG	5810 fluorescence intensity (a.u.)
GACGAGAGATTCAAATGTAAAAGTTAACCTAATGAAAACTCGGAGTCACCTAGTGCAG	10900 fluorescence intensity (a.u.)
AGCAAGCTTAATTAGCAGCCACACATTAGAGTCACAAAGTCGGAGTCACCTAGTGCAG	5890 fluorescence intensity (a.u.)
GAGATTAAATCTAATCATCGAAATCACCATCATCTCGACACGGAGTCACCTAGTGCAG	30100 fluorescence intensity (a.u.)
CAGCTGGAATATTATTGTGATTGACAAAAGCATGTTCCTTCGGAGTCACCTAGTGCAG	34800 fluorescence intensity (a.u.)
TGTATGACTTGATTTCTTTTATCTAGCATGATTTATTTGTCGGAGTCACCTAGTGCAG	6180 fluorescence intensity (a.u.)
AAAACCATCATCAATCAGTGCATGAACAACATCAATGATCCGGAGTCACCTAGTGCAG	17100 fluorescence intensity (a.u.)
GGCCTAAACTGCCACGATTGAAGGCCCATACTCCCCTACACGGAGTCACCTAGTGCAG	5420 fluorescence intensity (a.u.)
GGGTAGATAGATATTAGGTAAAGGGACTCGGTAGAGAGAGCGGAGTCACCTAGTGCAG	3150 fluorescence intensity (a.u.)
TTTCTGATTTACGTGGCTTGTGAGTAGGGCGCCTCCTCATCGGAGTCACCTAGTGCAG	8000 fluorescence intensity (a.u.)
TACTAAGATAGATAGATAGTACATGTGATGCCAAGATGTTCGGAGTCACCTAGTGCAG	3980 fluorescence intensity (a.u.)
GTAATAAAATTGAACTTTAATTTACTCTACATCCAATTCACGGAGTCACCTAGTGCAG	6140 fluorescence intensity (a.u.)
ATAAATTGAGGTGAGGCCTCTCCTCACCTTCCTAAACACCCGGAGTCACCTAGTGCAG	8040 fluorescence intensity (a.u.)
AAAATTACATACTAATTACATATGTAAGTGAGGTGTAAATCGGAGTCACCTAGTGCAG	13000 fluorescence intensity (a.u.)
ACTAATAATAAAACTAATTACAGAATCCGTCAGTAAACCACGGAGTCACCTAGTGCAG	14900 fluorescence intensity (a.u.)
TGATTATCAATCTGACGATATCTGTAAGATGAAGCCTCTTCGGAGTCACCTAGTGCAG	3310 fluorescence intensity (a.u.)
TATGTCCTGATTAGTTCTGGTCTACTGGTATGCTGTTTGCCGGAGTCACCTAGTGCAG	3980 fluorescence intensity (a.u.)
CTGAAATAACTTAGCTAACTGATTCATCATTTCAGAAGTGCGGAGTCACCTAGTGCAG	14500 fluorescence intensity (a.u.)

Sequence	binding signal
TCTGATGATTCCGCTGTTTGTTCATCAGATTTCCCATTATCGGAGTCACCTAGTGCAG	9220 fluorescence intensity (a.u.)
CCTTAATGATAAACACGAAGAAAATTAAATACTCCCTCCCCGGAGTCACCTAGTGCAG	15200 fluorescence intensity (a.u.)
TTTGAGTTTTGACTGACAAGGATTTGCATTGCAAACTCGGCGGAGTCACCTAGTGCAG	3940 fluorescence intensity (a.u.)
ATATAATCATCTCTATGATTGCCTCTAGGGCATATCACTACGGAGTCACCTAGTGCAG	33900 fluorescence intensity (a.u.)
ATGTTATAATTGGATGAGAAGTATAGGTAAATGAGGAAATCGGAGTCACCTAGTGCAG	12800 fluorescence intensity (a.u.)
CCACACAATCAACGCCATGATTACATTGCACTTGTCGTATCGGAGTCACCTAGTGCAG	23100 fluorescence intensity (a.u.)
GTAAACAAAATGCGTAATCATGTCGCAACTTGATCAAGAGCGGAGTCACCTAGTGCAG	6220 fluorescence intensity (a.u.)
ATGTAATTAGCTCAAGCCAAAGACATCTAAACTAGCTACCCGGAGTCACCTAGTGCAG	21400 fluorescence intensity (a.u.)
CCTGACAGGGGATGTCATCTCACGCGCCGCATTCGGCAGCCGGAGTCACCTAGTGCAG	18100 fluorescence intensity (a.u.)
CTATTATTTTAATCAATATTCATTTCTGTGCAAGTGGCATCGGAGTCACCTAGTGCAG	4260 fluorescence intensity (a.u.)
AATCACGGATTAGAGCCCTAATCACGCCGCCCGCGTAATTCGGAGTCACCTAGTGCAG	3450 fluorescence intensity (a.u.)
TGCTTGGTGATTTAATTTATTAGACTATTATCCTTTTAGACGGAGTCACCTAGTGCAG	14300 fluorescence intensity (a.u.)
TCCTGTAACAGAATTGGAAAACCCAATCTGGCGACGGCTGCGGAGTCACCTAGTGCAG	9790 fluorescence intensity (a.u.)
AGTACATGATGTGACATTATCTGTTACTACGATTCTGGACCGGAGTCACCTAGTGCAG	3410 fluorescence intensity (a.u.)
GAACCCGTCTATCTAAATTTAAATCCTAGATTACTGGGTTCGGAGTCACCTAGTGCAG	5340 fluorescence intensity (a.u.)
TGACATAATTAGGCTTAAAAGATTCGTCTCGCAATTTTCTCGGAGTCACCTAGTGCAG	8850 fluorescence intensity (a.u.)
GTGGTTCAATCAAACGGTCATTCCTGTGTTTTGCAATCCGCGGAGTCACCTAGTGCAG	14100 fluorescence intensity (a.u.)
AGATATTTAATCATCAATTTACTATTCAATATTAAAATTCCGGAGTCACCTAGTGCAG	9350 fluorescence intensity (a.u.)
TATTTAAATTCAAATTGAAATTCAAATTTAAATCGGATATCGGAGTCACCTAGTGCAG	16800 fluorescence intensity (a.u.)
AGAATCAATTAGTGACCTCTACAATCTGAGGGTCTTGGATCGGAGTCACCTAGTGCAG	27200 fluorescence intensity (a.u.)
TCGAACAGGCCCTTAATTATCTGAGCTATCCTGCATGCTTCGGAGTCACCTAGTGCAG	8320 fluorescence intensity (a.u.)

Sequence	binding signal
CCAAAATTTGATATTGATAAGGTCAATTTAGGGCACACACCGGAGTCACCTAGTGCAG	12300 fluorescence intensity (a.u.)
CTGATTGAAATTGAAAGTTTGATTGAAATTGAAACGATGCCGGAGTCACCTAGTGCAG	65300 fluorescence intensity (a.u.)
TTCCTATAATTTCTAGTTATGAATCTGGATATAGGCAAAACGGAGTCACCTAGTGCAG	4440 fluorescence intensity (a.u.)
AAGGTTAAACAAGATTGGCATGTACTCTTTCCATCCCATACGGAGTCACCTAGTGCAG	7870 fluorescence intensity (a.u.)
CATGATTGAGGAGTGAAGAATGAAGTACAGCAATATACACCGGAGTCACCTAGTGCAG	32000 fluorescence intensity (a.u.)
TGGTTAATCATGTGCCTTATTACTCGTAGTTCTCCTCGTTCGGAGTCACCTAGTGCAG	4690 fluorescence intensity (a.u.)
AGCTCTAAAATTATAATTTTCAAAATTCATGTCTCATGCCCGGAGTCACCTAGTGCAG	12600 fluorescence intensity (a.u.)
TTTGATAGGCATATTTCAATCCAACAACCTATCATCTTAACGGAGTCACCTAGTGCAG	24700 fluorescence intensity (a.u.)
TTTAGATTAACCCGTCACCTAGGGCCTCTTCGAGTTAAGCCGGAGTCACCTAGTGCAG	6420 fluorescence intensity (a.u.)
TTCCATGGACTAATTAGCAAGTTAATTTTCAGGGACGAAACGGAGTCACCTAGTGCAG	17900 fluorescence intensity (a.u.)
GCTCCAATTTAATTTCAAAATGAATTTATATATTCATTGTCGGAGTCACCTAGTGCAG	14100 fluorescence intensity (a.u.)
CACGGTTAATATTCTAATTACATGTGTTAAGTCCTTTAAACGGAGTCACCTAGTGCAG	5570 fluorescence intensity (a.u.)
CTATAAATTTAAGCATATACTTCTATATTCAATTCGACATCGGAGTCACCTAGTGCAG	5670 fluorescence intensity (a.u.)
AACTAATTAATGTATATTTATAATTTGAATAATTATCGAGCGGAGTCACCTAGTGCAG	51500 fluorescence intensity (a.u.)
TTGATAATTAAATGACTATATTTGGTTTGTTACCAAATATCGGAGTCACCTAGTGCAG	22700 fluorescence intensity (a.u.)
CTGATTAGCCGTTAATATACATGATCAACTATAAAACAAGCGGAGTCACCTAGTGCAG	47000 fluorescence intensity (a.u.)
AATAAGGGACTTAATTAGTCTAGGTTAAACTGGATGTTGCCGGAGTCACCTAGTGCAG	4640 fluorescence intensity (a.u.)
ATGATGTTCATCACCAAATTTGCAAAATTAGCGAGCTAGGCGGAGTCACCTAGTGCAG	5700 fluorescence intensity (a.u.)
CCTAATTAAGCTATATACTCCATATAGCTAGCTAAACACACGGAGTCACCTAGTGCAG	5020 fluorescence intensity (a.u.)
GTAAATCATAGGTGAAATAATATGTTTATAATTTACTTGTCGGAGTCACCTAGTGCAG	3320 fluorescence intensity (a.u.)
AAAAGTGATGCAATTGACTGCAACAGTAATCGTTATTACACGGAGTCACCTAGTGCAG	4880 fluorescence intensity (a.u.)
